PubChem BioAssay AID1466 (National Center for Advancing Translational Sciences (NCATS), 2008)
The whole screen tested about 200,000 compounds, of which about 10 (0.005%) were called active. This list was built around the results that the source calls inconclusive (neither active nor inactive); the mix of calls is not that of the screen. Calls come from the whole dose curve; as a rule, active = well fitted inhibition curve with a large enough effect; inconclusive = small, poorly fitted or top-dose-only effect, or effect the other way, or another doubt; inactive = no such curve, though single readings can be large or run the other way. Potencies of inconclusive entries are left out as doubtful fits.

The compounds below were run against Lysosomal alpha-glucosidase (Homo sapiens) (UniProt P10253) (assay: qHTS Assay for Inhibitors of Human alpha-Glucosidase as a Potential Chaperone Treatment of Pompe Disease). Details: purified human GAA, 4-MU-alpha-glucoside fluorescence; activity change, negative = inhibition: at 76.9 µM (top of the series) unless noted.
How it was run: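 Compounds are titrated up to 77 uM against 4 nM human enzyme. Substrate 4-methylumbelliferyl-alpha-D-pyranoside (400 uM) reacts 20 min at room temperature in pH 5.0 buffer; liberated 4-methylumbelliferone is read at 440 nm.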
Potency is the fitted concentration of half-maximal effect; tags give direction and shape of the fitted curve.
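Throughout, for activity change, negative = inhibition: plate controls were uninhibited enzyme wells for no effect and no-enzyme background for full effect.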

Row | Compound | Potency | activity change, negative = inhibition
1 | Cc1ccc(S(=O)(=O)/N=C2\C(=O)c3ccccc3C([O-])=C2n2cc[n+](CCC(C)C)c2)cc1 | inconclusive [activator, full curve, poor fit] | –
2 | O=c1ccc2c(o1)/C(=C/C=C(Cl)Cl)CCC2 | – | inconclusive: -16.2% [inhibitor]
3 | Cc1ccc(Cc2c(C)c(C#N)c3[nH]c4ccccc4n3c2=O)cc1 | inconclusive [activator, partial curve] | –
4 | CC1(C)Cc2cccc(OCC(=O)N3CCN(S(=O)(=O)c4ccccc4F)CC3)c2O1 | inconclusive [inhibitor, single point] | –
5 | O=[N+]([O-])c1ccccc1S(=O)(=O)N1CCN(CC2CC3C=CC2C3)CC1 (stereo not given) | – | inconclusive: 5.65% [activator]
6 | Cc1ccc(NC(=O)C2Cc3ccccc3CN2C(=O)c2ccccc2)cc1Cl (stereo not given) | – | inconclusive: -15.2% [inhibitor]
7 | CCOc1ccc(/C=N/NC(=O)c2ccc(CSc3nc4ccccc4[nH]3)cc2)cc1 | – | inconclusive: 14.4% [activator]
8 | CCc1ccc(OC2=NS(=O)(=O)c3ccccc32)cc1 | inactive | –
9 | O=C(Nn1cnnc1)C(Sc1ccccc1)c1ccccc1 (stereo not given) | inactive | –
10 | Cc1cccnc1Nc1nc(-c2ccc(O)cc2O)cs1 | inconclusive [inhibitor, partial curve, poor fit] | –
11 | CCn1c(SCC(=O)O)nnc1-c1ccccc1OC | – | inconclusive: 16.6% [activator]
12 | O=C(N/N=C/c1ccc(F)c(F)c1)c1cc2c(s1)-c1ccccc1CC2 | inconclusive [activator, single point] | –
13 | CC(C)C[C@H](NC(=O)N1CCN(c2ccccc2)CC1)C(=O)O | inconclusive [inhibitor, partial curve] | –
14 | c1ccc(-c2nnc(C(c3ccccc3)c3ccccc3)o2)cc1 | inconclusive [inhibitor, single point] | –
15 | Nc1c(C(O)(C(F)(F)F)C(F)(F)F)ccc2ccccc12 | inconclusive [activator, partial curve] | –
16 | O=C(NCc1ccco1)/C(=C\c1cccs1)NC(=O)c1ccco1 | inactive | –
17 | COC(=O)c1ccc(NS(=O)(=O)c2ccc(SC)cc2)cc1 | inconclusive [inhibitor, partial curve] | –
18 | NNC(=O)c1ccc(-c2cccc([N+](=O)[O-])c2)o1 | inconclusive [inhibitor, single point] | –
19 | COC(=O)/C(N=Nc1cccc(C(F)(F)F)c1)=C(\C)O | inconclusive [inhibitor, single point] | –
20 | NC(=O)c1cc2ccc(O)cc2oc1=NCc1ccccc1 | inconclusive [activator, partial curve] | –
21 | O=C(NCc1ccccn1)Nc1ccccc1 | – | inconclusive: 21.3% [activator]
22 | CC1=NNC(=O)C1CCC(=O)N/N=C/c1c(Cl)cccc1Cl (stereo not given) | inconclusive [inhibitor, single point] | –

Row | Compound | Potency | activity change, negative = inhibition
23 | Cc1ccc(SCC(=O)Nc2ccc(S(=O)(=O)Nc3ncccn3)cc2)cc1 | inactive | –
24 | COc1ccc(-c2cc(C(=O)Nc3ccc(Cl)cc3Cl)c3ccccc3n2)cc1OC | inconclusive [activator, single point] | –
25 | Cc1ccc(SCC(=O)Nc2cccc(C(=O)NC(C)(C)C)c2)cc1 | inconclusive [inhibitor, single point] | –
26 | CCOC(=O)C1=C(C)N=c2s/c(=C\c3ccc(OC(C)=O)c(OCC)c3)c(=O)n2C1/C=C/c1ccccc1 (stereo not given) | inconclusive [inhibitor, single point] | –
27 | Cc1ccc(-c2noc(CCC(=O)N3CCN(c4cccc(C(F)(F)F)c4)CC3)n2)cc1 | inconclusive [inhibitor, full curve, poor fit] | –
28 | CCOc1cc(/C=N/n2c(C)nc3sc(C)c(C)c3c2=O)ccc1O | inconclusive [activator, full curve, poor fit] | –
29 | Cn1nnnc1SCc1ccc(C(=O)Nc2nccs2)cc1 | inconclusive [inhibitor, partial curve] | –
30 | CCC(=O)NCc1cc(-c2nn(C)c(=O)c3ccccc23)ccc1OC | – | inconclusive: 12.1% [activator]
31 | COc1ccc(C(=O)Nc2cc(OC)ccc2OC)cc1 | inconclusive [activator, single point] | –
32 | COC(=O)c1ccccc1NC(=S)NC(=O)COc1ccccc1Cl | inconclusive [inhibitor, single point] | –
33 | Cc1csc(SCC(=O)N2CCN(S(=O)(=O)c3ccc(Cl)cc3)CC2)n1 | inactive | –
34 | COc1ccc(-c2cc(C(=O)OCC(=O)NC(C)(C)C)c3ccccc3n2)cc1 | inconclusive [activator, single point] | –
35 | CCc1cc2c(nc1CC)CCN(CC/C(C)=N/OC[C@H]1O[C@H](c3ccccc3)C=C[C@@H]1Oc1ccc(OC)cc1)C2 | inconclusive [inhibitor, single point] | –
36 | C=CCN1CCN(C(c2ccc(OC)c(OC)c2)c2nnnn2C(C)(C)C)CC1 (stereo not given) | inactive | –
37 | Cc1nc(-c2cccc(S(=O)(=O)N3CCCC(C)C3)c2)cs1 (stereo not given) | inconclusive [inhibitor, partial curve] | –
38 | Cc1cccc(C)c1NC(=S)NN(Cc1ccccc1)c1ccccc1 | inconclusive [inhibitor, single point] | –
39 | O=C(CNC(=O)C12CC3CC(CC(C3)C1)C2)N1CCN(S(=O)(=O)/C=C/c2ccccc2)CC1 | inconclusive [inhibitor, partial curve, poor fit] | –
40 | CN(C)CCCN(Cc1ccccc1)C(=S)Nc1ccc(F)c(Cl)c1 | inconclusive [inhibitor, single point] | –
41 | O=C(NCCCN1CCOCC1)c1cccc(S(=O)(=O)Nc2cc(Cl)ccc2Cl)c1 | inconclusive [inhibitor, single point] | –
42 | CSc1ccccc1NC(=O)CSc1nnnn1-c1ccccc1SC | inconclusive [inhibitor, partial curve, poor fit] | –
43 | COc1ccc(NC(=O)Nc2ccc(F)c(F)c2)c(OC)c1 | inconclusive [inhibitor, partial curve] | –
44 | COCCCn1c(=NC(=O)c2ccc3c(c2)OCO3)c(C#N)cc2c(=O)n3cccc(C)c3nc21 | inconclusive [activator, single point] | –

Row | Compound | Potency | activity change, negative = inhibition
45 | C(=C\c1ccccc1)/CN1CCN(C(c2ccccc2)c2ccccc2)CC1 | inconclusive [inhibitor, partial curve] | –
46 | Cc1nc(SCC(O)CCl)c([N+](=O)[O-])[nH]1 (stereo not given) | inconclusive [inhibitor, single point] | –
47 | CC1CCc2nc(/C(C#N)=C/c3ccncc3)sc2C1 (stereo not given) | inconclusive [activator, partial curve] | –
48 | O=C(NCc1ccccn1)C1CCN(S(=O)(=O)c2cccs2)CC1 | inactive | –
49 | Cc1cccn2c(=O)c3cc(C(=O)NC4CCS(=O)(=O)C4)sc3nc12 (stereo not given) | inconclusive [activator, partial curve] | –
50 | COc1ccc(NC(=O)CN2CCC(C)CC2)cc1 | – | inconclusive: -15.7% [inhibitor]
51 | CC1CCCC(C)N1C(=O)CSc1nc2ccccc2c(=O)[nH]1 (stereo not given) | inconclusive [inhibitor, single point] | –
52 | CS(=O)(=O)N(Cc1ccccc1)c1ccc(C(=O)NCc2cccnc2)cc1 | inconclusive [inhibitor, full curve, poor fit] | –
53 | Cc1cc(NCCCn2ccnc2)n2c(nc3ccccc32)c1C#N | inconclusive [activator, partial curve] | –
54 | Cc1cccc(N2C(=O)CC(Sc3nc(-c4ccccc4)c4cc(Cl)ccc4n3)C2=O)c1 (stereo not given) | inconclusive [activator, partial curve] | –
55 | Cc1nnc(-c2ccc(Oc3ccc(Br)cc3)c([N+](=O)[O-])c2)o1 | inconclusive [inhibitor, single point] | –
56 | Cc1ccnc(-n2c(C)cc(C=O)c2C)c1 | – | inconclusive: 15.9% [activator]
57 | CCCn1cc(S(=O)(=O)CC(=O)N2CCc3ccccc32)c2ccccc21 | – | inconclusive: -21.7% [inhibitor]
58 | Cc1ccc(C)c(S(=O)(=O)Nc2ccc(O)cc2)c1 | inactive | –
59 | CN(CCc1ccccn1)C(=O)c1nn2c(C(F)(F)F)cc(-c3ccco3)nc2c1Cl | inconclusive [inhibitor, single point] | –
60 | COc1ccc2cc3cc(C(=O)NCCN4CCN(Cc5ccccc5)CC4)oc3nc2c1 | inconclusive [activator, partial curve] | –
61 | COc1ccc(C(CC(=O)c2ccc(O)cc2)S(=O)(=O)c2ccc(C)cc2)cc1 (stereo not given) | inconclusive [inhibitor, partial curve, poor fit] | –
62 | Cc1ccc(C(=O)NCCc2n[nH]c(=S)n2C)cc1 | – | inconclusive: 12.7% [activator]
63 | CCOC(=O)NN1C(=O)c2ccccc2NC1C (stereo not given) | inconclusive [activator, single point] | –
64 | CN(Cc1cc(=O)n2ccsc2n1)C1CCCCC1 | – | inconclusive: 17.6% [activator]
65 | O=C(Nc1ccccc1Oc1ccccc1)C1CC1 | inconclusive [inhibitor, partial curve, poor fit] | –
